Values joined by “and” are separate entries in the source; they are usually repeats but may differ in a detail not shown here. Equal values may be shown once. Out of some 340,000 compounds screened, about 12,000 (3.5%) were called active. Inconclusive means that the source gave no clear call. Such entries were picked first, then a sample of the others. Calls follow the shape of the dose curve; as a rule, active = well fitted inhibition curve with a large enough effect; inconclusive = small, poorly fitted or top-dose-only effect, or another doubt; inactive = no such curve, though single readings can be large or run the other way. Where the call is inconclusive, the potency comes from a doubtful curve fit.
Assay: qHTS Assay for Inhibitors of Hepatitis C Virus (HCV)
Details: Huh7.5.1 HCVcc-Cre (HCVcc is cell-culture hepatitis C virus) infection, luciferase reporter, 44 h; series mostly up to 41.8 µM
Outline: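 After 44 h co-culture of compound, cells and HCVcc-Cre (~0.5 moi), substrate is added for 15 min at room temperature and luciferase measured over 15 sec. Cells were seeded at 1,000/well and pre-cultured 4 h.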
Potency is read from the fitted curve at half-maximal effect; tags tell the direction and shape of the fitted curve.

Row | Compound | Potency
1 | FC(F)(F)c1cc(-c2cccs2)nc(-n2cc(Cl)cn2)n1 | active: 10 µM
2 | Cn1c(CC(=O)NNC(=O)c2ccc(F)cc2F)nc2ccccc21 | inconclusive: 7.08 µM [inhibitor, full curve, poor fit]
3 | COc1ccc2c(c1)c(/C=N/Nc1ccc(C(=O)O)cc1)c(C)n2C | inactive
4 | Cn1c(/C=C/c2ccc(Cl)cc2)c([N+](=O)[O-])c(=O)n(C)c1=O | inconclusive: 31.6 µM [inhibitor, single point]
5 | CCc1ccc(-c2nn(-c3cc(Cl)ccc3[N+](=O)[O-])c(=O)c3ccccc23)cc1 | inactive
6 | CCN(CC)C(=O)C1CCCN(Cc2cccc(F)c2)C1 (configuration not stated) | inactive
7 | COc1cc(Cl)c(C)cc1NC(=O)CSc1ccc(C)cc1 | inconclusive: 31.6 µM [inhibitor, single point]
8 | C(C#CCCCCCCCCC[n+]1ccccc1)#CCCCCCCCCC[n+]1ccccc1 | inconclusive: 12.6 µM [inhibitor, single point] and inconclusive: 15.8 µM [inhibitor, partial curve]
9 | O=[N+]([O-])c1ccc2[nH]c(O)c(N=Nc3ccc(F)cc3)c2c1 | inconclusive: 2 µM [inhibitor, full curve, poor fit]
10 | CC(=O)c1ccc(N2CCC(c3cc(-c4ccc(Cl)cc4)n[nH]3)CC2)c([N+](=O)[O-])c1 | inconclusive: 31.6 µM [inhibitor, single point]
11 | Cc1ccc(C(=O)N2CCN(Cc3ccc4c(c3)OCO4)CC2)cc1C | inconclusive: 10 µM [inhibitor, partial curve]
12 | C#C[C@]1(O)[C@H](O)CC2C3CC[C@H]4C[C@@H](O)CC[C@]4(C)C3CC[C@@]21C (some centres not stated) | inconclusive: 31.6 µM [inhibitor, single point]
13 | O=C(CSc1ccc(Cl)cc1)Nc1ccccc1N1CCN(C(=O)c2ccc(Cl)cc2)CC1 | inconclusive: 8.91 µM [inhibitor, partial curve]
14 | Cc1cc(NC(=O)CSc2nc(-c3ccccc3)cs2)no1 | inconclusive: 25.1 µM [inhibitor, partial curve]
15 | Cc1ccc(C(=O)NCC(=O)N/N=C/c2sccc2C)cc1[N+](=O)[O-] | inconclusive: 31.6 µM [inhibitor, single point]
16 | O=C(c1cc(-c2ccc(Br)cc2)nc2ccccc12)N1CCC1 | inconclusive: 22.4 µM [inhibitor, single point]
17 | Cc1sc2nc(C3CC3)nc(N3CCN(C(=O)c4ccccc4F)CC3)c2c1C | inconclusive: 11.2 µM [inhibitor, partial curve]

Reference: PubChem BioAssay AID651820 (National Center for Advancing Translational Sciences (NCATS), 2012)
